# According to PubChem BioAssay AID686970 (National Center for Advancing Translational Sciences (NCATS), 2013):
# Screen size: about 360,000 compounds; about 6,000 (1.7%) were called active. Inconclusive means that the source gave no clear call. Such entries were picked first, then a sample of the others. The call rests on the fitted dose curve; in most records, active means well fitted cell-killing curve with a large enough effect; inconclusive means small, poorly fitted or top-dose-only effect, or effect the other way; inactive means flat fitted curve, though single readings scatter. Potencies of inconclusive entries are left out as doubtful fits.
# Assay: qHTS for induction of synthetic lethality in tumor cells producing 2HG: qHTS for the HT-1080-NT fibrosarcoma cell line;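 further: NT is the 2HG producing partner of a matched IDH1 knockdown line; nearly all actives have a fitted effect of over 55% in size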;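 on activity, negative = less viability: 0% = DMSO-treated cells and -100% = media-only wells without cells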
# Conditions: HT-1080-NT fibrosarcoma viability, CellTiter-Glo ATP luminescence, 48 h; activity, negative = less viability: at 46.1 µM (top of the series) unless noted
# How it was run: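 Fibrosarcoma NT cells, 750 per well in 5% FBS RPMI, were exposed to compound for 48 hours. Viability: CellTiter-Glo luminescence.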
# Potency means the concentration at half of the fitted maximal effect; tags describe the fitted curve by direction and shape.
SMILES,Potency,"activity, negative = less viability"
CCCCNCc1cc(Br)c(OCc2cccs2)c(OC)c1,"inconclusive [cytotoxic, single point]",
CCCNC(=O)c1cc(C2CCCCN2C(=O)c2ccccc2)on1 (stereo not given),"inconclusive [rising, single point]",
Cc1cccc(-c2cc(C(=O)Nc3ccncc3)c3ccccc3n2)c1,,inconclusive: -30.6% [cytotoxic]
CCN(CC)c1ccc2nc3ccc(N)cc3[n+](-c3ccccc3)c2c1,active: 10.3 µM,
FC(F)(F)c1cccc(N2CCN(C(=S)NC3CCCC3)CC2)c1,"inconclusive [cytotoxic, single point]",
COc1ccc(NS(=O)(=O)c2ccc(O)c(NC(=O)c3cc4c(C)nn(-c5ccc(F)cc5)c4s3)c2)cc1,"inconclusive [cytotoxic, single point]",
OC(COc1ccc2c(c1)CCC2)CN1CCN(c2ccccc2F)CC1 (stereo not given),"inconclusive [cytotoxic, single point]",
CC(C)C(C(=O)Nc1nccs1)N1C(=O)c2ccccc2C1=O (stereo not given),,inactive: 15.5%
NC(=O)c1ccsc1NC(=O)COC(=O)CCc1ccccc1,,inactive: -3.8%
CC(C)(C)C(=O)Cn1ncc(Br)c(Br)c1=O,"inconclusive [cytotoxic, single point]",
O=C(NNc1ccccc1[N+](=O)[O-])Nc1ccc(Cl)c(Cl)c1,active: 18.4 µM,
CCN(c1ccccc1)S(=O)(=O)c1cc(C(=O)Nc2ccc(Br)cc2)ccc1F,"inconclusive [cytotoxic, single point]",
Cc1ccccc1OCC(=O)NC(=S)Nc1ccc(S(=O)(=O)NC2CCCCC2)cc1,"inconclusive [cytotoxic, single point]",
O=C(CSc1nnnn1-c1ccc(F)cc1)Nc1ccc(N2CCOCC2)c(Cl)c1,,inactive: 0.371%
Cc1cc(F)ccc1C(O)c1ncc(-c2ccc3ccccc3c2)[nH]1 (stereo not given),"inconclusive [cytotoxic, single point]",
O=C1CC(c2ccc(Cl)cc2)SC(N(c2ccccc2)c2ccccc2)=N1 (stereo not given),"inconclusive [cytotoxic, single point]",
COCc1nnc(NC(=O)c2c(-c3c(Cl)cccc3Cl)noc2C)s1,"inconclusive [cytotoxic, partial curve]",
CC1NC(=O)NC1CCCCCC(=O)Nc1ccc(F)cc1 (stereo not given),,inactive: 13.3%
CN(c1ccccc1)S(=O)(=O)c1cccc(NC(=O)CN2C(=O)NC3(CCCC3)C2=O)c1,,inactive: 4.27%
CS(=O)(=O)N(CCc1ccccc1)CC(=O)NCc1ccco1,,inactive: 2.66%
